In all, about 45,000 compounds went through this assay and about 65 (0.1%) were called active. This list was built around the results that the source calls inconclusive (neither active nor inactive); the mix of calls is not that of the screen. Calls follow the shape of the dose curve; as a rule, active = well fitted activation curve with a large enough effect; inconclusive = small, poorly fitted or top-dose-only effect; inactive = no such curve, though single readings can be large or run the other way. Potencies beside an inconclusive call are fits to weak or partial responses and may not hold up.
Target: Galactocerebrosidase (Homo sapiens) (UniProt P54803)
Sequence of UniProt P54803 (P54803 whole entry, looked up): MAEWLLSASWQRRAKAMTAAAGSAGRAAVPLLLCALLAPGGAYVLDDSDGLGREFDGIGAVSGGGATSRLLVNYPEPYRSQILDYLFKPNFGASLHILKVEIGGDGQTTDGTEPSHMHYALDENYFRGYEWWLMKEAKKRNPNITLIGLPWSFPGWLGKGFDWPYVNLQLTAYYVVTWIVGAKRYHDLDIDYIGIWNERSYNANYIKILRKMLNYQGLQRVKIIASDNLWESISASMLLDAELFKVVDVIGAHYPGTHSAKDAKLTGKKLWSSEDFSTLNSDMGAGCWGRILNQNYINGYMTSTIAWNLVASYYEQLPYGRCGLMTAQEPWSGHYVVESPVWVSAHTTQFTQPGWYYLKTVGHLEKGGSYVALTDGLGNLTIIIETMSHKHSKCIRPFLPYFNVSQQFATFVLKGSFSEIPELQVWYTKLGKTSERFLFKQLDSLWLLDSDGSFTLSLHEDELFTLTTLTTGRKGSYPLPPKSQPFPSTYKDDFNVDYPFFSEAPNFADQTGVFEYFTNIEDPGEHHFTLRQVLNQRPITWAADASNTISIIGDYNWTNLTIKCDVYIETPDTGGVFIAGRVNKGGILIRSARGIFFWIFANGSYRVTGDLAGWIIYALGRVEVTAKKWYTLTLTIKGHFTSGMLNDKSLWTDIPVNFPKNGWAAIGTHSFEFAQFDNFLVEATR
Assay: A Novel Cell-Based Assay to Identify Small Molecules for B -Galactocerebrosidase; also: nearly all actives have a fitted effect of over 65% in size; as to activation: 0% is about no effect
Settings: 145M-Twi-hGALC-G270D cells (Twitcher mouse brain line with human GALC G270D), HMU-beta-Gal fluorescence, 48 h; activation: at 57.5 µM (top of the series)
Source text: Lysosomal storage diseases (LSDs) are caused by genetic mutations in genes encoding proteins important for normal lysosomal function. Globoid cell leukodystrophy (GLD), mostly known as Krabbe disease, is a prototype of the neurological LSDs caused by deficiency of beta-galactocerebrosidase (GALC). In brain specimens of GLD patients, psychosine levels are substantially elevated. At elevated concentrations, psychosine becomes cytotoxic to neuronal cells, particularly to oligodendrocytes (OLG), neural cells responsible for myelin formation. Therefore, the biochemical disturbances in GLD are manifested by different degrees of brain demyelination resulting in a broad spectrum of neurological manifestations. Most of the FDA-approved therapies are based on enzyme replacement therapeutic (ERT) agents, which treat non-neurological symptoms of Gaucher disease, Fabry disease, few mucopolysaccharidoses and Pompe disease. Unfortunately, in GLD, a primarily neurological LSD, ERT agents, as large molecular weight molecules unable to cross the blood-brain barrier, which makes this an inefficacious therapeutic approach. In GLD, increasing the residual GALC activity just above the critical threshold (~10% of wild type enzymatic activity), the cytotoxic levels of psychosine will be reduced, avoiding the OLGs apoptosis and the subsequent demyelination process. This will translate in disease stabilization and amelioration of GLD patient symptoms.
A cell-based assay in 1,536-well plate format was developed to implement a quantitative high-throughput screening (qHTS) assay using GLD-disease relevant cells to identify small molecules that produce enhancements of the residual enzymatic activity levels of mutants GALC found and prevalent in GLD patients. Compounds that are active may therefore have some therapeutic application for GLD. After the treatment of live cells for a determined period, using a fluorescent GALC specific substrate, the mutant residual GALC activity is measured. This cell-based qTHS assay was used to screen part of the MLPCN library for small molecule able to increase the mutant GALC enzymatic activity. In this assay, increased fluorescent signal corresponds to enhanced levels of mutant GALC residual enzymatic activity. Activation is the desired outcome for this assay.
NIH Chemical Genomics Center [NCGC]
NIH Molecular Libraries Probe Centers Network [MLPCN]
Assay Submitter (PI): Gustavo Maegawa MD,PhD, University of Florida, Gainesville, FL
2)#Two cell lines were established for the assay: 145M-Twi-hGALC-G270D (brain-derived Twitcher cell line stably expressing human GALC-G270D) and 145M-Twi-hGALC-WT (same 145M-Twi stably expressing human GALC wild type). The Twitcher is the murine C57B/6 model for GLD with naturally occurring homozygous nonsense GALC mutation. The 145M-Twi cell line was established at Maegawa lab (Ribbens J et al 2014).
a.#Media: DMEM/F12 (1:1) with 10% fetal bovine-serum (FBS) with penicillin/streptomycin (PS-1X - 100 I.U./mL of penicillin+100 ug/mL of streptomycin).
b.#The 6-Hexadecanoylamino-4-methylumbelliferyl-b-D-galactoside (HMU-B-gal) substrate was prepared as per Wiederschain et al 1992. Using 20-mL borosilicate tubes, 2.20 mg of HMU-b-Gal was added in each tube to prepare substrate-film with a final air-nitrogen stream evaporation to remove all diluent solvents.
c.#The HMUb-Gal substrate buffer consists of 0.2 M Na2HPO4 (sodium phosphate dibasic)/ 0.1 M Citric Acid with the pH adjusted to 5.2 using HCl. Sodium Azide at 0.02% and Sodium Taurocholate (NaTC) at 1 mg/mL were added to this substrate buffer.
d.#The HMU-b-Gal stopping buffer consist of 0.5 M NaHCO3 (sodium bicarbonate) /0.5 M Na2CO3 (sodium carbonate). […] Triton X-100 at 0.25% was added.
4)#Preparation of HMU-b-Gal substrate tubes
Adding 18.6 mL of the HMUb-Gal substrate buffer to each 20-mL tube (2.20 mg of HMU-b-Gal) will reach a concentration of 0.2 mM. Vortex well the tube until the solution is fully homogenized (clear cloudy solution). […]
Potency is read from the fitted curve at half-maximal effect; tags tell the direction and shape of the fitted curve.

Q: `CC(C)(c1ccc(O)cc1)c1ccc(O)cc1` was tested. Which Potency did it give?
A: inactive

Q: How did the Potency turn out when `CCC(=O)O[C@@H]1C=C2CCC3C(CCC4(C)C3CC[C@@H]4OC(=O)CC)C2CC1` (stereo partly drawn) was run?
A: inactive

Q: For `CC(Oc1ccccc1)C(=O)Nc1ccc(C(=O)OCc2cc(=O)n3nc(C4CC4)sc3n2)cc1` (stereo not drawn), which Potency is on record?
A: inconclusive: 39.8 µM [activator, single point]

Q: For `C[C@]12CC[C@H]3[C@@H](CCC4=CC(=O)CC[C@@]43C)[C@@H]1CC[C@@H]2C(=O)O`, which Potency is on record?
A: inactive

Q: With `Cc1cccc(N2CCN(C(=O)CCS(=O)(=O)c3ccc4c(c3)oc(=O)n4C)CC2)c1C` as the molecule, how does the Potency read?
A: inconclusive: 39.8 µM [activator, single point]

Q: With `C[C@]12Cc3nonc3C[C@@H]1CC[C@@H]1[C@@H]2CC[C@@]2(C)[C@H]1CC[C@]2(C)O` as the molecule, how does the Potency read?
A: inactive

Q: With `O=C(OCc1cc(=O)n2nc(C3CC3)sc2n1)c1ccc(NC(=O)c2ccccc2Cl)cc1` as the molecule, how does the Potency read?
A: inconclusive: 39.8 µM [activator, single point]

Q: Which Potency does the source give for `CC1Sc2c(C(=O)O)c(=O)c3cc(F)c(N4CCNCC4)cc3n21` (stereo not drawn) here?
A: inactive

Q: With `Nc1c(C(=O)Nc2ccc(Cl)cc2)sc2nc3c(cc12)N1CCC3CC1` as the molecule, how does the Potency read?
A: active: 31.6 µM

Q: `O=C1C(I)=CC(=C(c2cc(I)c(O)c(I)c2)c2ccccc2C(=O)O)C=C1I` was tested. Which Potency did it give?
A: inactive

Q: With `CCCN1CCC[C@@H]2Cc3nc(N)ncc3C[C@H]21` as the molecule, how does the activation read?
A: inconclusive: 32.2% [activator]

Q: With `O=c1c2ccccc2nc(/C=C/c2ccccc2F)n1-c1cccc(O)c1` as the molecule, how does the Potency read?
A: inconclusive: 39.8 µM [activator, single point]

Q: How did the Potency turn out when `CCc1ccc(OCC(=O)N2CCN(CCc3ccncc3)CC2)cc1` was run?
A: inconclusive: 0.158 µM [activator, full curve, poor fit]
